From article PMC12668182
Residue numbers refer to the chain shown, from its start. These are yes or no findings as the source states them, for the method shown. For part of these data: In cells and extracts the contact can be indirect. Some entries that bind do so weakly or less than the wild type. For part of these data: Sequences can lack the tags named with a protein. Blank lines part the entries; values can stand above or below the substance they belong to.

The chains behind the UniProt entries cited, without tags or fusion partners. Where a name states a change or a piece, a line headed by the entry shows the natural chain unless it says otherwise. A line that says so, or that is headed by a name, gives the form on record, which may keep a tag or linker.
UniProt Q03468: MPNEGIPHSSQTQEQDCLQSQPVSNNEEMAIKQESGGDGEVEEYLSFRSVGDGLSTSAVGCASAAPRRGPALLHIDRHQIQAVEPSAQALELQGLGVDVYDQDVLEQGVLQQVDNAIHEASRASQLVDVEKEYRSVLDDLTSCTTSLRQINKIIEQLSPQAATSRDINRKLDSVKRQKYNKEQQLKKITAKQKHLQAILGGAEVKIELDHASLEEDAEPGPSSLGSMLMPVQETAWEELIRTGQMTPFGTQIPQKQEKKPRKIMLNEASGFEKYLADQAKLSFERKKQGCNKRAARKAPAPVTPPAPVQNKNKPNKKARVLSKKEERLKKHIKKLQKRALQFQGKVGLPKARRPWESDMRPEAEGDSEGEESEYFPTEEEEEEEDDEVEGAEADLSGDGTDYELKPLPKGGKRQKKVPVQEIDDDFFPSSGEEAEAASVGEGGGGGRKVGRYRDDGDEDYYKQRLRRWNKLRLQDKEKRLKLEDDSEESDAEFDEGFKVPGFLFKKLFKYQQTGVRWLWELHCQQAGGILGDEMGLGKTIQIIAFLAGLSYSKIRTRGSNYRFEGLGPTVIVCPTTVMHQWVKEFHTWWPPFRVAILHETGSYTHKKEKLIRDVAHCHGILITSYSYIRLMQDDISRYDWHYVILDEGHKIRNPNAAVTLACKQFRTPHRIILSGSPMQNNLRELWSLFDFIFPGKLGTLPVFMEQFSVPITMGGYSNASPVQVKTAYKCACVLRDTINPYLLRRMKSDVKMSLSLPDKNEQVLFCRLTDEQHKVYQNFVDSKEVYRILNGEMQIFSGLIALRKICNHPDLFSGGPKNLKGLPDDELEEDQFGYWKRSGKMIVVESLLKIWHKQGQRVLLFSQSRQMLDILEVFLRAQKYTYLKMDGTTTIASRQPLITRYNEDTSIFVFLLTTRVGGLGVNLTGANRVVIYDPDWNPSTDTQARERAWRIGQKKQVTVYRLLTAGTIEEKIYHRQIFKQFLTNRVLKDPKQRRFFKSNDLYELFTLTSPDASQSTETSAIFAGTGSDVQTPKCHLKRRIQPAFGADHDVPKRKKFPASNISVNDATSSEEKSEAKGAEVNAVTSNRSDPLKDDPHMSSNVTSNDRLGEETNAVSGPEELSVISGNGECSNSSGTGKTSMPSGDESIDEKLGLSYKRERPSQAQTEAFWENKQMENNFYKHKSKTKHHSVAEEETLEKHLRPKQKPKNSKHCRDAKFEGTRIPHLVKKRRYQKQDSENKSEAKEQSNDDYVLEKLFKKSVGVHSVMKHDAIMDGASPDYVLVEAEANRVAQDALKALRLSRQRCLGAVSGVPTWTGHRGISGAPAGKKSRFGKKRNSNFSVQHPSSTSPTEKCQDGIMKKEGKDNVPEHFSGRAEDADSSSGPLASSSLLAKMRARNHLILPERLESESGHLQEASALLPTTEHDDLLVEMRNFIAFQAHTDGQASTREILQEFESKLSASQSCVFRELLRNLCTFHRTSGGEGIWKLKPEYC
CSB-WHD (a.a. 1424-1493) with T1447A substitution (Q03468, form named): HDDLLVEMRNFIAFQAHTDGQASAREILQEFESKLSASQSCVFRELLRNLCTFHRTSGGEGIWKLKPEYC

Columns and labels:
[1] = target: T1, N-Avi-Biotin-SNM1A (a.a. 698-1040), wild type (human) (UniProt Q6PJP8); assay: condition: dilutions starting from 500 nM or 1 uM (methods); SPR; single-cycle; SNM1A immobilised via biotinylated N-terminal Avi tag on a Series S SA surface (~4000 RU); CSB constructs as analytes, 5 or 6 two-fold dilutions from 500 nM or 1 uM; 20 mM HEPES pH 7.5, 150 mM NaCl, 0.5 mM TCEP; 1:1 Langmuir fit; apparent KD; both purified
T1 sequence (chain, biotin on the N-terminal Avi tag): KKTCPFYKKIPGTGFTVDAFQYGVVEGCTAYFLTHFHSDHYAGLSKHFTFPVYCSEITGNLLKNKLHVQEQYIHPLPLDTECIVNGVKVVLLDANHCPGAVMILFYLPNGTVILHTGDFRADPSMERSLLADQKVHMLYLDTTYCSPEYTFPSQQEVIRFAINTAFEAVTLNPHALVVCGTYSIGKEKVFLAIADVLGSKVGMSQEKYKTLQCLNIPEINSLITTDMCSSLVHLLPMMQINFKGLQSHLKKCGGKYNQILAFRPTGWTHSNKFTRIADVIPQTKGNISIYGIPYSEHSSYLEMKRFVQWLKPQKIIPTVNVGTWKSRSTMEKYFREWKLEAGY

[2] = target: CSB lacking the C-terminal domain (DC-CSB, a.a. 1-1014) (human) (UniProt Q03468); assay: mass photometry; CSB variants alone; 50 mM HEPES pH 7.5, 300 mM NaCl, 0.5 mM TCEP; results say 200 nM, methods say 2 uM diluted to 20 nM in the gasket; monomer to dimer; both purified
[3] = target: T1, N-Avi-Biotin-SNM1A (a.a. 698-1040), wild type (human); assay: SPR; single-cycle; SNM1A immobilised via biotinylated N-terminal Avi tag on a Series S SA surface (~4000 RU); CSB constructs as analytes, 5 or 6 two-fold dilutions from 500 nM or 1 uM; 20 mM HEPES pH 7.5, 150 mM NaCl, 0.5 mM TCEP; 1:1 Langmuir fit; apparent KD; both purified
[4] = target: T2, GFP-tagged SNM1A, full-length construct, E864A (human) (UniProt Q6PJP8); assay: co-IP; GFP-Trap magnetic agarose on RIPA lysates (with Benzonase) of HEK293 FT cells transfected with GFP-tagged SNM1A or CSB; washes with 150, 250 and 500 mM NaCl; Western blot
T2 sequence: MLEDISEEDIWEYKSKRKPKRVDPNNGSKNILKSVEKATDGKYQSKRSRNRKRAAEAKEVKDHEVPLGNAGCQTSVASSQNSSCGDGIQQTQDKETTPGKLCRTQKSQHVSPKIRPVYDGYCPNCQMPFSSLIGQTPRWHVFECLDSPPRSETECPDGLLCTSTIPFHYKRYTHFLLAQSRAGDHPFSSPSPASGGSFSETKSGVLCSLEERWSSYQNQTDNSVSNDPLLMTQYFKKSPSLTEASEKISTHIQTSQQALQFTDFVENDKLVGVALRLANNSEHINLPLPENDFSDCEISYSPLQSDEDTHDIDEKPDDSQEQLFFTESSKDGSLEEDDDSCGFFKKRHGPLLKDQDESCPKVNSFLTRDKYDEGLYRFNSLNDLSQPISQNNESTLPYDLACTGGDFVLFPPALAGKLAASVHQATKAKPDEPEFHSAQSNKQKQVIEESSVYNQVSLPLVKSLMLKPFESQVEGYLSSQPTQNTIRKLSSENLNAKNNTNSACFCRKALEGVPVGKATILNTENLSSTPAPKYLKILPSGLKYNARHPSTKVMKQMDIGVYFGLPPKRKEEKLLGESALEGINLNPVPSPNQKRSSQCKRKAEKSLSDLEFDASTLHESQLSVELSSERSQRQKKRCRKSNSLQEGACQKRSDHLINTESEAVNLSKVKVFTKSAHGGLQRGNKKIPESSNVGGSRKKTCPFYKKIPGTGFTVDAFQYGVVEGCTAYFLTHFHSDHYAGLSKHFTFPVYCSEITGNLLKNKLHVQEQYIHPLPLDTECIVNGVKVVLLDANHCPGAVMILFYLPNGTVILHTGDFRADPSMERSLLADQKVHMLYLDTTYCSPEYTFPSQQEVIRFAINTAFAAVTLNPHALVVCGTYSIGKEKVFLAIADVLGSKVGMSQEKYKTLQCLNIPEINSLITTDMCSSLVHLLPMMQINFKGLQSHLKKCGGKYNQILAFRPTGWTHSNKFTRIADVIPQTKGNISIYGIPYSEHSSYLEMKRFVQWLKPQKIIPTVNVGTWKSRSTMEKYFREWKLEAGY

[5] = target: T3, GFP-tagged SNM1A, full-length construct, nuclease-dead variant D736A (human) (UniProt Q6PJP8); assay: as above
T3 sequence: T2 sequence with D736A, A864E

[6] = target: T4, GFP-tagged SNM1A, full-length construct, WT (human) (UniProt Q6PJP8); assay: as above
T4 sequence: T2 sequence with A864E

- binding [1]: no binding
Substance: CSB C-terminal region lacking the WHD (a.a. 1187-1401) (from UniProt Q03468 1187-1401) (domain or fragment)

- binding [2]: no binding (tested: 200 nM)
Substance: CSB lacking the C-terminal domain (DC-CSB, a.a. 1-1014) (from UniProt Q03468 1-1014) (domain or fragment)

- binding [3]: no binding
Substance: CSB-WHD (a.a. 1424-1493) with T1447A substitution (from UniProt Q03468 1424-1493) (domain or fragment)

- binding [4]: binds
- binding [5]: binds
- binding [6]: binds
Substance: CSB found in the co-immunoprecipitates of GFP-SNM1A (from UniProt Q03468 1-1493)
